# Source: a collection of fitness landscapes (doi:10.1126/science.1257360)
# The other results are listed elsewhere or left out.
# B1: PhoQ; a variant is named by its letters at X, in order, P23837 (parent)
# chain: MKKLLRLFFPLSLRVRFLLATAAVVLVLSLAYGMVALIGYSVSFDKTTFRLLRGESNLFYTLAKWENNKLHVELPENIDKQSPTMTLIYDENGQLLWAQRDVPWLMKMIQPDWLKSNGFHEIEADVNDTSLLLSGDHSIQQQLQEVREDDDDAEMTHSVAVNVYPATSRMPKLTIVVVDTIPVELKSSYMVWSWFIYVLSANLLLVIPLLWVAAWWSLRPIEALAKEVRELEEHNRELLNPATTRELTSLVRNLNRLLKSERERYDKYRTTLTDLTHSLKTPLXXLQXXLRSLRSEKMSVSDAEPVMLEQISRISQQIGYYLHRASMRGGTLLSRELHPVAPLLDNLTSALNKVYQRKGVNISLDISPEISFVGEQNDFVEVMGNVLDNACKYCLEFVEISARQTDEHLYIVVEDDGPGIPLSKREVIFDRGQRVDTLRPGQGVGLAVAREITEQYEGKIVAGESMLGGARMEVIFGRQHSAPKDE
# Variants of: B1
# Assay: enrichment ratio after two sorts for PhoP signalling (ratio (wild type AVST 3.29)); higher = more functional
# Conditions: with PhoP (E. coli)
row,Variant,enrichment ratio
1,MKGH,≤ 0.25
2,DQSR,≤ 0.25
3,PPCW,≤ 0.25
4,KQSP,≤ 0.25
5,ETSG,≤ 0.25
6,GNTQ,≤ 0.25
7,IFDH,≤ 0.25
8,LIRT,≤ 0.25
9,VRTC,≤ 0.25
10,QKML,≤ 0.25
11,ERSQ,≤ 0.25
12,SPHG,≤ 0.25
13,EADI,≤ 0.25
14,ADWV,≤ 0.25
15,NTGI,≤ 0.25
16,NTAS,≤ 0.25
17,AARH,≤ 0.25
18,NRAA,≤ 0.25
19,IYLA,≤ 0.25
20,YSAH,≤ 0.25
21,ASCR,4.6
22,ITDY,≤ 0.25
23,SKFL,≤ 0.25
24,KPLG,≤ 0.25

row,Variant,enrichment ratio
1,EGIP,≤ 0.25
2,QSMG,≤ 0.25
3,LKWC,≤ 0.25
4,MHPK,≤ 0.25
5,DYYH,≤ 0.25
6,QQNC,≤ 0.25
7,SLTC,2.93
8,DNQA,≤ 0.25
9,IAPR,≤ 0.25
10,QILS,≤ 0.25
11,VDNK,≤ 0.25
12,NFFF,≤ 0.25
13,MLYL,10.2
14,AQDG,≤ 0.25
15,LPQN,≤ 0.25
16,QHDQ,≤ 0.25
17,TEAH,40
18,SQEY,≤ 0.25
19,YRWD,≤ 0.25
20,NNGP,≤ 0.25
21,KNLE,≤ 0.25
22,HPFE,≤ 0.25
23,WRTP,≤ 0.25
24,TIVY,≤ 0.25

row,Variant,enrichment ratio
1,DHME,≤ 0.25
2,DCQC,≤ 0.25
3,QMSY,4.57
4,MCWL,6.27
5,MKAD,≤ 0.25
6,FTKM,≤ 0.25
7,KQHL,≤ 0.25
8,YLTL,1.11
9,NPPK,≤ 0.25
10,SHLY,5.46
11,VKHG,≤ 0.25
12,YFFE,≤ 0.25
13,WEQT,≤ 0.25
14,TPTI,≤ 0.25
15,SEES,6.49
16,AHLR,≤ 0.25
17,YGQI,≤ 0.25
18,LVCI,≤ 0.25
19,QKIV,≤ 0.25
20,DLGV,≤ 0.25
21,RQDA,≤ 0.25
22,GLFY,≤ 0.25
23,HDHC,≤ 0.25
24,IAKM,≤ 0.25

row,Variant,enrichment ratio
1,LAAK,≤ 0.25
2,YHRL,≤ 0.25
3,HVKY,≤ 0.25
4,DEYT,≤ 0.25
5,PVVF,≤ 0.25
6,TENT,3.14
7,GTFL,≤ 0.25
8,LSRF,≤ 0.25
9,TTVG,3.36
10,TEEY,3.77
11,QEWF,≤ 0.25
12,RITT,≤ 0.25
13,YTYW,≤ 0.25
14,LPIM,≤ 0.25
15,SNNA,6.23
16,TMNI,3.75
17,MILE,≤ 0.25
18,QYFR,≤ 0.25
19,YHNP,≤ 0.25
20,WFRS,≤ 0.25
21,ADRP,≤ 0.25
22,EIWV,≤ 0.25
23,DLLE,≤ 0.25
24,PQSQ,≤ 0.25

row,Variant,enrichment ratio
1,GQLI,8.6
2,NMTG,≤ 0.25
3,KEHY,≤ 0.25
4,DTQI,≤ 0.25
5,VKNP,≤ 0.25
6,TTRE,≤ 0.25
7,KIVP,≤ 0.25
8,IFAN,≤ 0.25
9,ETGY,≤ 0.25
10,NLSE,≤ 0.25
11,TSGA,10
12,PCCR,≤ 0.25
13,SHKY,≤ 0.25
14,VNLT,3.84
15,PGPP,≤ 0.25
16,FNNG,≤ 0.25
17,IYCI,≤ 0.25
18,QWAF,≤ 0.25
19,LTNN,≤ 0.25
20,AGQK,≤ 0.25
21,IANL,≤ 0.25
22,SPYL,≤ 0.25
23,QDHL,≤ 0.25
24,IFCP,≤ 0.25

row,Variant,enrichment ratio
1,TSPR,≤ 0.25
2,ERPC,≤ 0.25
3,QRYA,≤ 0.25
4,SCKY,≤ 0.25
5,AFMN,≤ 0.25
6,HQSV,≤ 0.25
7,TIDK,≤ 0.25
8,IATA,≤ 0.25
9,KPTC,≤ 0.25
10,HLDN,≤ 0.25
11,VNHE,≤ 0.25
12,YFCD,≤ 0.25
13,LGVV,≤ 0.25
14,GFEP,≤ 0.25
15,PMPN,≤ 0.25
16,TINE,≤ 0.25
17,GFHD,≤ 0.25
18,LIYY,0.905
19,IHMA,≤ 0.25
20,RYVK,≤ 0.25
21,DICC,≤ 0.25
22,QVSR,≤ 0.25
23,FFFE,≤ 0.25
24,YHAP,≤ 0.25

row,Variant,enrichment ratio
1,LIKF,≤ 0.25
2,EKLS,≤ 0.25
3,GCAN,≤ 0.25
4,NYMI,≤ 0.25
5,IITV,≤ 0.25
6,NRKG,≤ 0.25
7,YDRQ,≤ 0.25
8,KTRY,≤ 0.25
9,LNAN,≤ 0.25
10,IEFR,≤ 0.25
11,VWGT,≤ 0.25
12,DYRG,≤ 0.25
13,FKYY,≤ 0.25
14,DDGD,≤ 0.25
15,FQSF,0.597
16,PRME,≤ 0.25
17,CNIT,≤ 0.25
18,ASDH,≤ 0.25
19,FHFL,≤ 0.25
20,FESV,≤ 0.25
21,KRGA,≤ 0.25
22,GHQY,≤ 0.25
23,TITQ,12.5
24,NYRK,≤ 0.25

row,Variant,enrichment ratio
1,HYCQ,≤ 0.25
2,LGMK,≤ 0.25
3,NGDF,≤ 0.25
4,PAIQ,≤ 0.25
5,IGAV,≤ 0.25
6,LADT,≤ 0.25
7,GNNK,≤ 0.25
8,EPPC,≤ 0.25
9,KGYR,≤ 0.25
10,WSFF,≤ 0.25
11,YMPN,≤ 0.25
12,PFSN,≤ 0.25
13,LLNR,≤ 0.25
14,LRVT,≤ 0.25
15,LYHK,≤ 0.25
16,HVMV,≤ 0.25
17,VFFY,≤ 0.25
18,LKWF,≤ 0.25
19,GYRV,≤ 0.25
20,DPAR,≤ 0.25
21,PCAN,≤ 0.25
22,ASHT,≤ 0.25
23,MLPA,≤ 0.25
24,MCDE,≤ 0.25

row,Variant,enrichment ratio
1,AMSL,7.49
2,HSIH,≤ 0.25
3,SPGT,≤ 0.25
4,PFCY,≤ 0.25
5,FLGI,≤ 0.25
6,RAMK,≤ 0.25
7,EKMY,≤ 0.25
8,MDFN,≤ 0.25
9,NWMT,≤ 0.25
10,VHCD,≤ 0.25
11,DLDH,≤ 0.25
12,WCWT,≤ 0.25
13,EGIF,≤ 0.25
14,ETST,≤ 0.25
15,YWGC,≤ 0.25
16,RTFI,≤ 0.25
17,TPGM,≤ 0.25
18,PTYC,≤ 0.25
19,FFMG,≤ 0.25
20,YTKT,≤ 0.25
21,TIMY,≤ 0.25
22,RGHE,≤ 0.25
23,SVKS,≤ 0.25
24,GPFM,≤ 0.25

row,Variant,enrichment ratio
1,KTFC,≤ 0.25
2,WEWH,≤ 0.25
3,DYWC,≤ 0.25
4,TYCK,≤ 0.25
5,AVTI,10.4
6,DQMD,≤ 0.25
7,ERLF,≤ 0.25
8,KFPP,≤ 0.25
9,QKWG,≤ 0.25
10,KMHT,≤ 0.25
11,VYTD,≤ 0.25
12,HQYR,≤ 0.25
13,SRWM,≤ 0.25
14,IWYS,≤ 0.25
15,TPTP,≤ 0.25
16,YTPA,≤ 0.25
17,VAAT,≤ 0.25
18,AHYD,≤ 0.25
19,NAAA,≤ 0.25
20,INAK,≤ 0.25
21,LFNT,≤ 0.25
22,DMWY,≤ 0.25
23,RRSE,≤ 0.25
24,DGWF,≤ 0.25

row,Variant,enrichment ratio
1,DMAH,≤ 0.25
2,ISNT,≤ 0.25
3,NLHE,≤ 0.25
4,THEP,≤ 0.25
5,LYWQ,≤ 0.25
6,PIHL,≤ 0.25
7,KVVN,≤ 0.25
8,GQNI,≤ 0.25
9,DANQ,≤ 0.25
10,RMYM,≤ 0.25
11,PGLH,≤ 0.25
12,IWFF,≤ 0.25
13,DVWI,≤ 0.25
14,GWRR,≤ 0.25
15,RGWW,≤ 0.25
16,RKLF,≤ 0.25
17,LRMG,≤ 0.25
18,LPDM,≤ 0.25
19,SRGN,≤ 0.25
20,DDVG,≤ 0.25
21,IQGK,≤ 0.25
22,EMCQ,≤ 0.25
23,WHWT,≤ 0.25
24,QQEC,≤ 0.25

row,Variant,enrichment ratio
1,PDPS,≤ 0.25
2,PAKG,≤ 0.25
3,SMKK,≤ 0.25
4,SMTH,4.57
5,WHIE,≤ 0.25
6,DEQR,≤ 0.25
7,NPIN,≤ 0.25
8,ELMK,≤ 0.25
9,INSH,≤ 0.25
10,RWEA,≤ 0.25
11,LEDH,≤ 0.25
12,DECN,≤ 0.25
13,ATMP,≤ 0.25
14,NHSA,≤ 0.25
15,QNVS,≤ 0.25
16,YRMG,≤ 0.25
17,PMNC,≤ 0.25
18,IKLC,≤ 0.25
19,ICLG,8.57
20,TIFH,≤ 0.25
21,PVFC,≤ 0.25
22,MTDC,≤ 0.25
23,IEHQ,≤ 0.25
24,MVPG,≤ 0.25

row,Variant,enrichment ratio
1,AMSV,6.73
2,WCHF,≤ 0.25
3,MTKH,≤ 0.25
4,VAHC,≤ 0.25
5,LTAW,1.45
6,EYLG,≤ 0.25
7,YTKC,≤ 0.25
8,VWCL,≤ 0.25
9,EANS,≤ 0.25
10,RSDM,≤ 0.25
11,NCLH,≤ 0.25
12,RYVR,≤ 0.25
13,VVAW,≤ 0.25
14,EVKT,≤ 0.25
15,KMAP,≤ 0.25
16,RGYE,≤ 0.25
17,MHGK,≤ 0.25
18,KQDP,≤ 0.25
